# Data: PubChem BioAssay AID602310 (National Center for Advancing Translational Sciences (NCATS), 2012)
# Out of some 410,000 compounds screened, about 310 (0.076%) were called active. The shares of active, inactive and inconclusive entries below differ from those in the screen. Calls come from the whole dose curve; as a rule, active = well fitted curve in the direction sought with a large enough effect; inconclusive = small, poorly fitted or top-dose-only effect; inactive = flat fitted curve, though single readings scatter. A potency beside an inconclusive call is a rough fit, not a confirmed value.
# Target: DNA dC->dU-editing enzyme APOBEC-3G (Homo sapiens) (UniProt Q9HC16)
# Experiment: qHTS for Inhibitors of Vif-A3G Interactions: qHTS; note: nearly all actives have a fitted effect of over 60% in size;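 for activity, negative = active: hits raise eYFP signal because A3G escapes Vif-driven loss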
# Settings: HeLa A3G-eYFP + Vif (tagged APOBEC3G with the HIV-1 protein that degrades it), YFP fluorescence, overnight; series mostly up to 46.1 µM; activity, negative = active: at the top concentration
# Method in brief: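 Read-out is eYFP fluorescence (Ex 488/Em 500-530) from Vif-expressing HeLa A3G-eYFP cells; more signal means A3G escaped Vif-mediated degradation. Cells plated overnight, compound pinned in, incubated overnight at 37 deg C.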
# % is set by controls: 0 for no effect and ±100 for the full control effect; potency is the fitted concentration of half-maximal effect; tags give direction and shape of the fitted curve.
# Chain of UniProt Q9HC16 (Q9HC16 whole entry, looked up): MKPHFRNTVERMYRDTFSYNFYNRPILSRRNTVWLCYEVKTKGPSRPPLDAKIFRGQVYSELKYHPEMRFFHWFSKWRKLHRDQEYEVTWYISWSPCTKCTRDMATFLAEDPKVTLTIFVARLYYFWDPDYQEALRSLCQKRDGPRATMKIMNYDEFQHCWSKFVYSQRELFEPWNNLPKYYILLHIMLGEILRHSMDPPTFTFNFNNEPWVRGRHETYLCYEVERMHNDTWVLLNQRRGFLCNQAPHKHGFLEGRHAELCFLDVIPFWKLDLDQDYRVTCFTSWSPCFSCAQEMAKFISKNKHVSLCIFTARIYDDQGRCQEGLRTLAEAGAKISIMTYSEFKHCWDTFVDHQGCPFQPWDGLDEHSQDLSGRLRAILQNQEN
Compound,Potency,"activity, negative = active"
COc1ccc2c(c1)c(/C=C/c1cc[n+](C)cc1)cn2C,"inconclusive: 4.47 µM [inhibitor, partial curve, poor fit]",–
c1ccc(N=Nc2ccc3cccccc2-3)cc1,"inconclusive: 17.8 µM [inhibitor, partial curve, poor fit]",–
CCOc1ccc(-c2cc3nc(C4CCN(C(=O)OC(C)(C)C)CC4)c(C(=O)O)cn3n2)cc1,–,inactive: -0.916%
CCOC(=S)SCC(=O)Nc1nc(-c2ccccc2)cs1,"inconclusive: 5.01 µM [inhibitor, full curve]",–
Cc1ccc(SCC(Cc2ccccc2)N2CCN(C)CCC2=O)cc1 (stereo not drawn),–,inactive: 2.54%
CC(CN1CCN(CCOCCO)CC1)CN1c2ccccc2Sc2ccc(Cl)cc21 (stereo not drawn),"inconclusive: 35.5 µM [inhibitor, single point]",–
Cc1ccc2nc(C3CCCN(C(=S)Nc4cccc(C)c4C)C3)[nH]c2c1 (stereo not drawn),"inconclusive: 35.5 µM [inhibitor, single point]",–
O=C(CCl)N(C/C=C/c1ccccc1)c1ccc2c(c1)OCCO2,–,inactive: -26.6%
COc1ccccc1/C=C\C=N\n1c(-c2ccc(Cl)cc2)n[nH]c1=S,"inconclusive: 7.94 µM [inhibitor, partial curve, poor fit]",–
COC(=O)c1ccc(-c2nc3ccc(C)cc3o2)cc1,"inconclusive: 4.47 µM [inhibitor, full curve, poor fit]",–
O=C(/C(=N/N=C/c1ccc(O)c(O)c1O)c1ccccc1)c1ccccc1,"inconclusive: 35.5 µM [inhibitor, single point]",–
O=C(COC(=O)C1c2ccccc2Oc2ccccc21)NC1CCS(=O)(=O)C1 (stereo not drawn),–,inactive: -0.12%
O=C1c2ccccc2-c2onc3c(N4CCN(CCO)CC4)cc(N4CCN(C(=O)c5ccco5)CC4)c1c23,"inconclusive: 12.6 µM [inhibitor, single point]",–
CC(=O)Nc1cccc(-c2cc(NC=O)c3ncc(-c4ccc(F)c(Cl)c4)n3c2)c1,"inconclusive: 11.2 µM [inhibitor, partial curve, poor fit]",–
COc1ccc(Nc2ncnc3onc(-c4ccc(Cl)cc4)c23)cc1Cl,"inconclusive: 2.51 µM [inhibitor, partial curve, poor fit]",–
CN1C(=O)/C(=C/c2cccc([N+](=O)[O-])c2)C(=O)N1c1ccccc1,–,inactive: -24.6%
CCc1cccc(CC)c1N(COC)C(=O)Cn1c(C)nc2ccccc21,–,inactive: 13.5%
COc1ccc(OC)c(/C=C/C(=O)N2CCN(S(=O)(=O)c3cc(C)ccc3C)CC2)c1,–,inactive: 1.13%
CC(NC(=O)/C(C#N)=C1\N=C(NC(=O)c2ccco2)c2ccccc21)c1ccccc1 (stereo not drawn),"inconclusive: 22.4 µM [inhibitor, single point]",–
CN(C)c1ccc(/C=C(/C#N)C(=O)NCc2ccccc2)o1,"inconclusive: 20 µM [inhibitor, single point]",–
Cc1ccc(CCNC(=O)C2CCN(S(=O)(=O)c3c(C)nn(C)c3C)CC2)cc1,"inconclusive: 20 µM [inhibitor, partial curve]",–
Cc1cccc(-c2nc3ccc(C(=O)NCCN4CCN(C)CC4)cc3nc2-c2cccc(C)c2)c1,"inconclusive: 28.2 µM [inhibitor, single point]",–

Compound,Potency,"activity, negative = active"
Cc1noc(NS(=O)(=O)c2ccc(NC(=O)/C=C/c3ccc(Cl)cc3Cl)cc2)c1C,"inconclusive: 14.1 µM [inhibitor, single point]",–
Cc1ccccc1-n1sc2cc(F)ccc2c1=O,–,inactive: -6.41%
CN(C)c1ccc(C(=N)Cc2ccc3ccccc3n2)cc1,"inconclusive: 17.8 µM [inhibitor, single point]",–
CCOC(=O)CNC(=O)c1cc2c(=O)n(CC)c3ccccc3c2s1,–,inactive: 3.41%
CC(=O)Nc1ccc(S(=O)(=O)NCC(CCC(=O)O)C(F)(F)F)cc1 (stereo not drawn),–,inactive: -0.588%
COc1ccc(C2C(C(=O)Nc3cc(OC)c(OC)c(OC)c3)c3ccccc3C(=O)N2C)cc1 (stereo not drawn),"inconclusive: 5.01 µM [inhibitor, full curve, poor fit]",–
Cc1ccc(NC(=O)c2cccc(S(=O)(=O)NCc3ccccc3)c2)nc1,"inconclusive: 35.5 µM [inhibitor, single point]",–
CCN(CC(=O)Nc1ccc(NC(C)=O)cc1)C(=O)/C=C/c1cn(-c2ccccc2)nc1-c1ccc(C)cc1,–,inactive: 7.72%
COc1ccc(C(=O)/C=C2/C(=O)Nc3ccccc32)c(OC)c1,–,inactive: -27.1%
COc1ccc(C(=O)Nc2ccccc2[N+](=O)[O-])cc1S(=O)(=O)N1CCOCC1,–,inactive: -29.9%
Cc1ccccc1Nc1c(-c2ccccc2O)nc2sccn12,"inconclusive: 10 µM [inhibitor, partial curve, poor fit]",–
COc1cc(C(=O)Nc2ccc(N(C)C)cc2)cc(OC)c1OC,"inconclusive: 17.8 µM [inhibitor, single point]",–
N#Cc1c(-c2ccccc2F)cc(C2CC2)nc1SCC(=O)c1cccs1,"inconclusive: 17.8 µM [inhibitor, partial curve, poor fit]",–
COc1ccc(Nc2ccccc2N)cc1,"inconclusive: 35.5 µM [inhibitor, single point]",–
Cc1cc(C(=O)NN)c2cc(Br)ccc2n1,"inconclusive: 15.8 µM [inhibitor, single point]",–
O=C1c2[nH]nc(-c3ccccc3O)c2C(c2cccc(Br)c2)N1Cc1ccncc1 (stereo not drawn),"inconclusive: 1 µM [inhibitor, full curve]",–
CCOc1cc(C)c(Cl)cc1S(=O)(=O)NCc1ccc2c(c1)OCO2,"inconclusive: 15.8 µM [inhibitor, single point]",–
CCN(CC)c1ccc(N=C2C=CC(=O)C=C2NC(C)=O)cc1,–,inactive: -11.9%
COC(=O)C1=NN(C(=O)c2cccc(Br)c2)C(O)(c2ccc(Cl)cc2)C1 (stereo not drawn),"inconclusive: 22.4 µM [inhibitor, single point]",–
CCOc1ccc2[nH]c(C(=O)N/N=C/c3ccc(OC)cc3)cc2c1,"inconclusive: 0.562 µM [inhibitor, full curve, poor fit]",–
C(=C\c1c[nH]c2ccccc12)/c1ccc2ccccc2n1,"inconclusive: 11.2 µM [inhibitor, partial curve, poor fit]",–
